From PubChem BioAssay AID256 (DTP/NCI, 2004)
Inconclusive results and toxic doses are left out. Certain results were filed several times, with different values. The other results are left out here. An entry can have further records. The values listed for one entry differ, and nothing given here explains why; dose, time, organism, isomer or construct need not be as stated for each record.

Test system: CD2F1 mice, L1210 leukemia ip, survival T/C
Test: NCI In Vivo Anticancer Drug Screen. Data for tumor model L1210 Leukemia (intraperitoneal) in CD2F1 (CDF1) mice
Settings: higher = longer survival
Procedure, shortened: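 Transplantable tumor in mice; compound-treated vs vehicle-treated groups. Read-out = treated/control ratio of the measured endpoint.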

SMILES: O=C(O)Cc1cccc2c(=O)cc(-c3ccccc3)oc12
- T/C (endpoint: median survival time, dose: 150.0 mg/kg/injection, schedule: Q01DX009 (ip), vehicle: sodium bicarbonate): 124 % of control and 170 % of control

SMILES: COc1cccc2c1C(=O)c1c(O)c3c(c(O)c1C2=O)C[C@@](O)(C(=O)CO)C[C@@H]3OC1CC(N)C(O)C(C)O1 (stereo not given in full)
- T/C (endpoint: mean survival time, dose: 1.56 mg/kg/injection, schedule: Q01DX009 (ip), vehicle: water): 118 % of control and 155 % of control
- T/C (endpoint: mean survival time, dose: 9.0 mg/kg/injection, schedule: Q01DX001 (ip), vehicle: saline): 114 % of control and 155 % of control
- T/C (endpoint: median survival time, dose: 16.0 mg/kg/injection, schedule: Q04DX003 (ip), vehicle: water): 98 % of control and 154 % of control

SMILES: COc1cccc2c1C(=O)c1c(O)c3c(c(O)c1C2=O)CC(O)(C(=O)CO)CC3OC1CC(N)C(O)C(C)O1.[Cl][Pt+2][Cl].[NH2-].[NH2-] (stereo not given)
- T/C (endpoint: median survival time, dose: 16.0 mg/kg/injection, schedule: Q04DX003 (ip), vehicle: DMSO): 94 % of control and 167 % of control
